According to PubChem BioAssay AID360 (National Center for Advancing Translational Sciences (NCATS), 2006):
Out of some 48,000 compounds screened, about 550 (1.1%) were called active. Another 4% or so got no clear call; they are omitted. Cut-off read from the data, not from the text of the source: active = potency below about 15 µM; inconclusive = mostly about 16 µM to 33 µM; inactive = weaker than that. This is one part of the list.

target: Lysosomal acid glucosylceramidase (Homo sapiens) (UniProt P04062); assay: Glucocerebrosidase; settings: purified enzyme, resorufin glucoside fluorescence (screen aimed at inhibitors), 20 min;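 note: the screen sought inhibitors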
UniProt P04062, sequence (P04062 whole entry, looked up): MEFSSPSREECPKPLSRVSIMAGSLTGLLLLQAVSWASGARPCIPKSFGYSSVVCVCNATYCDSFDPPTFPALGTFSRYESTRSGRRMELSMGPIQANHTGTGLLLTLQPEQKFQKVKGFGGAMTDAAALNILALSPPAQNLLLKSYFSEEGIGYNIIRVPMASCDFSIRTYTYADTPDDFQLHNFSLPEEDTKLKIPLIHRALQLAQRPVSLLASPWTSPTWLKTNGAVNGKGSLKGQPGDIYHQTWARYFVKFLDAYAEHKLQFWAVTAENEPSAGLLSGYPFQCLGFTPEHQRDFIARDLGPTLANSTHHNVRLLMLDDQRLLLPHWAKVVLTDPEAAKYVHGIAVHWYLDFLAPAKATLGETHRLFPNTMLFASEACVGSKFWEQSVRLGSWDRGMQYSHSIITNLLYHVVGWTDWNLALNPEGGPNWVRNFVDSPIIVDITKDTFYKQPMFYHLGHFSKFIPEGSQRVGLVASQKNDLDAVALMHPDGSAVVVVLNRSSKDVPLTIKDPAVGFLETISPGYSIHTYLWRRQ
Outline: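 Normal human glucocerebrosidase (0.2 nM final) was assayed with resorufin β-D-glucopyranoside (30 uM final) in 50mM citric acid/KH2PO4, 10mM sodium taurocholate, 0.01% tween-20, pH 5.9. Compounds were titrated; fluorescence (Ex 548, Em 600) read after 20 min at RT.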
Potency is the fitted concentration of half-maximal effect.

Potency, inactive:
CC(=O)Nc1ccc(S(=O)(=O)NCC2CCC(C(=O)NCCC(C)C)CC2)cc1 (stereo not given) > 76.9 µM
CCOc1ccccc1NC(=O)Cn1nnc(C(=O)Nc2ccccc2Cl)c1N > 76.9 µM
O=C(c1ccccc1)N1CCN(CC(O)COCC2CC=CCC2)CC1 (stereo not given) > 76.9 µM
Cc1ccc(S(=O)(=O)N(Cc2nccn2C)C(C)C)cc1 > 76.9 µM
CC(CS(=O)(=O)c1cccc2cccnc12)N1CCCCC1 (stereo not given) > 76.9 µM
COc1ccc2cc3cc(C(=O)Nc4ccc5c(c4)OCCO5)oc3nc2c1 > 76.9 µM
Cc1cc2oc(C(=O)N(Cc3ccco3)C3CCS(=O)(=O)C3)cc(=O)c2cc1Cl (stereo not given) > 76.9 µM
CC(=O)c1ccc(N2CCN(C(=O)C3CCN(S(=O)(=O)Cc4ccccc4)CC3)CC2)cc1 > 76.9 µM
O=C(CN1CCC(NC(=O)c2cccc(F)c2)CC1)NCc1ccccc1F > 76.9 µM
COc1ccc(-c2noc(-c3ccco3)n2)cc1OC > 76.9 µM
NC(=O)CSc1nnc(-c2cnccn2)n1-c1ccccc1 > 76.9 µM
CCCCn1c(SCC(=O)N2CCC(C)CC2)nc2cc(S(N)(=O)=O)ccc21 > 76.9 µM
COCCNC(=O)C(c1ccc(C)o1)N(Cc1ccc(OC)cc1)C(=O)Cn1nnc2ccccc21 (stereo not given) > 76.9 µM
Cc1ccc(-n2c(=O)c(C#N)cc3c(=O)n4ccccc4nc32)cc1 > 76.9 µM
COc1ccc(C(=O)COC(=O)Cn2nnc3ccccc32)cc1Br > 15.4 µM
O=C(CN1C(=O)COc2ccccc21)N1CCc2ccccc21 > 76.9 µM
c1ccc(-c2csc(-n3cnnn3)n2)cc1 > 76.9 µM
Cc1ccc(-n2ncc(C(=O)N3CCc4ccccc4C3)c2NC(=O)c2ccco2)cc1C > 76.9 µM
CCOc1ccc(-c2nnn(CC(=O)NCc3ccco3)n2)cc1 > 76.9 µM
COc1cc(Cn2c(=O)oc3ccc(C)cc32)ccc1OC(C)C > 76.9 µM
CCOC(=O)N1CCN(S(=O)(=O)c2ccc(Br)s2)CC1 > 76.9 µM
CCc1ccccc1N1CC(C(=O)O)CC1=O (stereo not given) > 76.9 µM
C=CCSC1=C(C#N)C(c2cc(Br)c(O)c(OC)c2)CC(=O)N1 (stereo not given) > 76.9 µM
CCOC(=O)N1CCN(S(=O)(=O)c2c(C)nn(C)c2C)CC1 > 76.9 µM
Clc1cccc(-c2nnc3sc(-c4ccc5c(c4)OCO5)nn23)c1 > 76.9 µM
Cc1ccc(-n2c(C)cc(C(=O)CSc3nnnn3C)c2C)cc1 > 76.9 µM
Cc1ccc(C)c(Cn2c(=O)n(CCC(=O)NCc3ccco3)c(=O)c3sccc32)c1 > 76.9 µM
COc1cccc(C2C(C(=O)NCc3ccccc3)=C(C)Nc3ncnn32)c1 (stereo not given) > 76.9 µM
COc1ccc(OC)c(CNC(=O)CCN2C(=O)COc3ccccc32)c1 > 76.9 µM
CN1CCN(CC(=O)C23CC4CC(CC(C4)C2)C3)CC1 > 76.9 µM
O=C(c1cc2nc(-c3ccccc3)cc(-c3ccccc3)n2n1)N1CCN(C(=O)c2ccco2)CC1 > 76.9 µM
c1ccc(CNc2nc3ccccc3[nH]2)cc1 > 15.4 µM
O=C1CCCC2=C1C(c1ccncc1)c1c(nc(SCc3ccccc3Cl)[nH]c1=O)N2 (stereo not given) > 76.9 µM
OCCN(Cc1ccccc1)CC1CC2C=CC1C2 (stereo not given) > 76.9 µM
O=C(CN1CCC(n2nnc3cc(F)ccc32)CC1)NCc1ccco1 > 76.9 µM
Clc1ccccc1C1=Nn2c(nnc2-c2ccncc2)SC1 > 76.9 µM
COc1cccc(C(=O)Cn2c(Br)nc3c2c(=O)n(C)c(=O)n3C)c1 > 76.9 µM
CC1(C)CC(CC(=O)Nc2ccccn2)C(=O)O1 (stereo not given) > 76.9 µM
O=C(CSc1nnc(-c2ccco2)n1Cc1ccccc1)c1ccc(F)cc1 > 76.9 µM
CCCCn1c(SCC(=O)N2CCCc3ccccc32)nc2c1c(=O)n(C)c(=O)n2C > 76.9 µM
Cc1c(Cl)cccc1NC(=O)CN1CCN(CCO)CC1 > 76.9 µM
c1cn2cc(CN3CCOCC3)nc2s1 > 76.9 µM
CN1C(=O)c2ccc(C(=O)NC3CCCCC3)cc2C1=O > 76.9 µM
Cc1cc(C)cc(N(C(=O)CNC(=O)c2ccco2)C(C(=O)NC2CCCC2)c2cccnc2)c1 (stereo not given) > 76.9 µM
Cn1c(CNC(=O)Cc2ccc3c(c2)OCO3)nnc1SCc1ccccc1 > 76.9 µM
O=C(CCCc1nc(-c2ccccc2)no1)Nc1cccnc1 > 76.9 µM
CC(C)CCOP(=O)(c1ccc(N(C)C)cc1)C(O)c1ccccn1 (stereo not given) > 76.9 µM
COc1ccc(NC(=O)C2CC(=O)N(c3cccc(C)c3C)C2)cc1 (stereo not given) > 76.9 µM
Cc1cccc(-n2c(SCC(=O)Nc3nonc3C)nnc2-c2ccoc2C)c1 > 76.9 µM
CC(OCc1ccccc1)C(NC(=O)OC(C)(C)C)C(=O)NCC1CCCO1 (stereo not given) > 76.9 µM
O=C(CN(Cc1ccco1)C(=O)CNS(=O)(=O)c1ccccc1)NC1CCCCC1 > 76.9 µM
O=C(NC1CCN(Cc2nnnn2CCc2ccccc2)CC1)c1ccccc1F > 76.9 µM
Cc1nc2ncnn2c(N2CCN(C(=O)c3cccc(F)c3)CC2)c1Cc1ccccc1 > 76.9 µM
Cc1oc(-c2ccccc2)nc1C(=O)Nc1nccs1 > 76.9 µM
O=C(Cn1nnc(-c2ccccc2)n1)Nc1ccccc1N1CCOCC1 > 76.9 µM
Cc1cc(C)c(NC(=O)CS(=O)CC(=O)Nc2cccnc2)c(C)c1 (stereo not given) > 76.9 µM
CC1CC2(C)Oc3ccccc3C3OCC1(CO)C(C)C32 (stereo not given) > 76.9 µM
CCC(C(=O)Nc1nnc(-c2ccco2)s1)c1ccccc1 (stereo not given) > 76.9 µM
COC(=O)C(C)C1Sc2ccccc2NC1=O (stereo not given) > 76.9 µM
COc1ccc(CCNc2oc(Cc3ccccc3)nc2C#N)cc1OC > 76.9 µM
COc1ccc(-c2nnc(SCC(=O)c3ccco3)n2-c2ccccc2)cc1 > 76.9 µM
CC(=O)NCCN=C(C)c1sc2ccccc2c1O > 76.9 µM
O=C(CCNC(=O)Cn1cnc2ccccc2c1=O)NCC1COc2ccccc2O1 (stereo not given) > 76.9 µM
CCCCc1c(O)nc(SCC(=O)NCC2CCCO2)[nH]c1=O (stereo not given) > 76.9 µM
Cc1cc(OCc2nn[nH]n2)c2c(C)c(CC(=O)O)c(=O)oc2c1 > 76.9 µM
COc1ccc(OCC(=O)Nc2ccc3c(c2)nc(CCN2CCOCC2)n3C)cc1 > 76.9 µM
Oc1ccc(-c2csc(Nc3cccnc3)n2)cc1 > 76.9 µM
CCC(c1nnnn1Cc1ccccc1)N(Cc1cc2cc(OC)ccc2[nH]c1=O)CC1CCCO1 (stereo not given) > 76.9 µM
COc1ccc(CCNC(=O)C2CCN(S(=O)(=O)c3cccc4nonc34)CC2)cc1OC > 76.9 µM
Nc1ccc(C23CC4CC(CC(O)(C4)C2)C3)cc1 > 76.9 µM
COc1ccc(CNC(=O)CSc2nnnn2Cc2ccccc2)cc1 > 76.9 µM
Cc1ccc(NC(=O)CC2SC3=NCCCN3C2=O)c(C)c1 (stereo not given)
CCOC(=O)N1CCN(C(=O)CN(c2ccc(OCc3ccccc3)cc2)S(C)(=O)=O)CC1 > 76.9 µM
Cn1c(=O)c2[nH]cnc2n(-c2ccccc2)c1=O > 76.9 µM
COCCCNS(=O)(=O)c1ccc2c3c(cccc13)C(=O)S2 > 76.9 µM
O=C(CCc1nc(-c2cccs2)no1)Nc1cnc2ccccc2c1 > 76.9 µM
COc1ccccc1NC(=O)CN1C(=O)NC(CC(C)C)C1=O (stereo not given) > 76.9 µM
COc1ccc(C(=O)NC(C(=O)NCc2ccccn2)C(C)C)cc1 (stereo not given) > 76.9 µM
CS(=O)(=O)c1ccc2nc(N)sc2c1 > 76.9 µM
COc1ccc(C2=NOC(C(=O)NCCCN3CCOCC3)C2)cc1 (stereo not given) > 76.9 µM
C=CCNc1nc(N)c(C(=O)c2ccc3c(c2)OCO3)s1
COC(=O)c1[nH]c2cc(OC)ccc2c1NC(=O)CN1CCOCC1 > 76.9 µM
Cc1oc(-c2ccccc2F)nc1CN1CCC(C(=O)NCc2cccnc2)CC1 > 76.9 µM
O=C1CC(C(=O)N(CC2CCCO2)C(C(=O)NC2CCCCC2)c2ccncc2)CS1 (stereo not given) > 76.9 µM
CCOc1cccc2cc(C(=O)N3CCc4ccccc4C3)c(=O)oc12 > 76.9 µM
COCCCNC(=O)CCCC(=O)NCCCOC > 76.9 µM
CCc1ccc(CN2C(=O)CCC2(C)C(=O)NC2CCCC2)cc1 (stereo not given) > 76.9 µM
CCn1c(=O)cc(OCC(=O)NCc2ccc(C)o2)c2ccccc21 > 76.9 µM
Cc1ccccc1S(=O)(=O)Cc1ccc(C(=O)N2CCN(c3ncccn3)CC2)o1 > 76.9 µM
COc1cccc(CNn2c(-c3cccc(C)c3)nc3ccccc3c2=O)c1O > 76.9 µM
